Data: article PMC4336329 (PLoS ONE, 2015)
Screen size: about 310,000 compounds; about 14,000 (4.5%) showed an effect of 50% or more. The effect is printed as a negative number. This is one part of the list.

What follows are compounds tested against human ether-à-go-go-related gene (hERG) potassium channel (human, UniProt Q12809) (assay: primary screen, population patch clamp on CHO cells stably expressing hERG).
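Note: peak tail current of the secondary pulse compared with the same well before compound.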

Chain of human ether-à-go-go-related gene (hERG) potassium channel (Q12809 whole entry, looked up): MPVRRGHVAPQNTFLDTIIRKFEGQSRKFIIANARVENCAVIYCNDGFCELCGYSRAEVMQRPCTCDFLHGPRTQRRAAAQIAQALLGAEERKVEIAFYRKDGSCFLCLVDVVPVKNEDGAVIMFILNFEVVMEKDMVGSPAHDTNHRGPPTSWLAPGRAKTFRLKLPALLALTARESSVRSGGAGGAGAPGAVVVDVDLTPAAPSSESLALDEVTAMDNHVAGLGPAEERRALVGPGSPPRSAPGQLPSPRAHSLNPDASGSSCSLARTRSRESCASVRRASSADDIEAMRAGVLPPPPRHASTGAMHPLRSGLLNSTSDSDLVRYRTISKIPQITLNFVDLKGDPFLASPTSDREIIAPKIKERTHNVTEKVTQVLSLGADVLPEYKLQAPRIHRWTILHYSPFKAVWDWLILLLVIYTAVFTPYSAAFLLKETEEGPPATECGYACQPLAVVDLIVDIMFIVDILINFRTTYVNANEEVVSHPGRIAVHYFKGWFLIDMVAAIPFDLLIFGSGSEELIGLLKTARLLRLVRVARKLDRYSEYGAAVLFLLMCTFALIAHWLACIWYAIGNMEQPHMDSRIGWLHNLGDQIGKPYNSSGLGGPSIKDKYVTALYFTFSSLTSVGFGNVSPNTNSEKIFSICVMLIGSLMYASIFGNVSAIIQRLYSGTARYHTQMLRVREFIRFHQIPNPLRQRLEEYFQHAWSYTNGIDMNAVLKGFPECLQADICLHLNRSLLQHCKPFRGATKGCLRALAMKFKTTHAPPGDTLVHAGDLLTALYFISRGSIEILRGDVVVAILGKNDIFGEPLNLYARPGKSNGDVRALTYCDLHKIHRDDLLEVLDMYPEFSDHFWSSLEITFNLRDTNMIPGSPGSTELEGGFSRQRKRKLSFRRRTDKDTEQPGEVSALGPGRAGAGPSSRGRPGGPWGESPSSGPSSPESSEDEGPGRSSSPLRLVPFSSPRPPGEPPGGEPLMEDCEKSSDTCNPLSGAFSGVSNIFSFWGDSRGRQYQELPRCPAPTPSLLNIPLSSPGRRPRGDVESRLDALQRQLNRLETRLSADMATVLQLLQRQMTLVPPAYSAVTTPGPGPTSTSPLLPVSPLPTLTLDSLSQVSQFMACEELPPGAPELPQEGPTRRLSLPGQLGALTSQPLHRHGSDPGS

Structure (SMILES) | hERG current change (%, negative = inhibition) at 10uM
c1ccc(-n2nnnc2-c2cccnc2)cc1 | -5.3%
C[C@H](NC(N)=O)C(=O)Nc1ccc(N2CCOCC2)c(S(=O)(=O)Nc2ccc(Cl)cc2)c1 | 11.4%
COC(=O)c1c[nH]n2c(=O)cc(CCl)nc12 | 5.31%
O=C(CSc1nnnn1-c1ccccc1)NC(=O)NCc1ccco1 | -8.79%
O=C(CSc1nnc2ccccn12)NCCc1ccc(Cl)cc1 | -14.9%
CC(=O)c1ccc(OC(=O)c2ccc(Br)o2)cc1 | -3.64%
CCN(CC)c1ccc(CNc2nc3ccccc3n2CCN2CCCCC2)cc1 | -74.5%
O=C(CSc1n[nH]c(=O)n1Cc1ccco1)Nc1ccccc1Cl | -3.39%
CCCCSc1nc2sc3c(c2c(=O)[nH]1)CCC3 | -4.45%
CCOC(=O)C1(CCOc2ccccc2)CCN(Cc2cccc(-n3cccn3)c2)CC1 | -79.3%
CN1CCN(S(=O)(=O)c2ccc(NC(=O)COc3ccccc3)cc2)CC1 | 19.1%
O=C(c1ccc(-c2cccc(Cl)c2Cl)o1)N1CCOCC1 | -19.2%
CNc1nc(CCN2C(=O)c3ccccc3C2=O)cs1 | 6.81%
O=S(=O)(c1ccccc1)c1nc(-c2ccc(F)cc2)oc1NCC1CCCO1 (centres unmarked) | -34.6%
CCOc1ccc(C(C(=O)NC2CCCC2)N(C(=O)c2snc(C(N)=O)c2N)C2CCCC2)cc1 (centres unmarked) | -51.1%
CCc1ccc(N(C(C)=O)C2C=CS(=O)(=O)C2)cc1 (centres unmarked) | -6.3%
COc1ccc(-c2cc(C(=O)NC3CCCC3)c3ccccc3n2)cc1 | -21.6%
CC(C)CN(C(=O)COC(=O)Cc1c[nH]c2ccccc12)c1c(N)n(Cc2ccccc2)c(=O)[nH]c1=O | 13.4%
CNC(=O)C(=O)NCC(c1cccs1)S(=O)(=O)c1ccc(F)cc1 (centres unmarked) | 12.5%
COC(=O)c1ccc(NC(=O)CSc2ccc(-c3ccccn3)nn2)cc1 | 12.3%
CCN(Cc1ccccc1)C(c1cc2ccc(C)cc2[nH]c1=O)c1nnnn1CCOC (centres unmarked) | -25%
Cc1ccc(S(=O)(=O)NCCC(=O)Nc2cccc(S(N)(=O)=O)c2)cc1C | 17.6%

Structure (SMILES) | hERG current change (%, negative = inhibition) at 10uM
Cc1cccc(C)c1OCC(=O)OCC(=O)c1ccc2c(c1)NC(=O)CO2 | -14.7%
CN(CC(=O)Nc1ccccc1C(F)(F)F)C(=O)CSc1nnnn1C | 16.4%
CCn1c(CNC(=O)c2cccc(C)c2)nnc1SCC(=O)N1CCOCC1 | 3.52%
COc1ccc(-n2nc(C(=O)O)cc2-c2ccccc2)cc1 | 19.5%
Cc1ccc(Nc2nc3ccccc3nc2-n2nc(C)cc2C)cc1 | 6.44%
CCn1cc(C(=O)NCCCN2CC(C)CC(C)C2)c2cc(OC)c(OC)cc2c1=O (centres unmarked) | 6.72%
CCc1nc(Nc2cccc(O)c2)c2oc3ccccc3c2n1.Cl | 12.4%
CC(C(=O)Nc1ccncc1)(c1ccccc1)c1ccccc1 | -39.4%
CN(Cc1cccs1)C(=O)Cc1csc(-c2ccccc2)n1 | 0.862%
CCCOc1cccc(C(=O)Nc2ccccc2C(=O)N2CCN(C)CC2)c1 | -43.2%
C=CCNC(=O)CC1C(=O)NCCN1Cc1ccc(-c2ccccc2)cc1 (centres unmarked) | -7.59%
O=C(NCCC1CCCCN1S(=O)(=O)c1ccccc1)C(=O)NCc1ccccc1F (centres unmarked) | 1.99%
Cc1ccc(NC(=O)CCCCCN2C(=O)[C@@H]3Cc4ccccc4CN3C2=O)cc1 | -12.1%
Cc1nc([N+](=O)[O-])c(N2CCOCC2)n1Cc1ccccc1 | 9.64%
Cc1ccccc1OCc1nnc(SC(C)C(=O)O)n1Cc1ccccc1 (centres unmarked) | 21.5%
CCCN(C(=O)c1cc(Cl)nc2ccccc12)C1CCS(=O)(=O)C1 (centres unmarked) | 9.75%
CCCC[C@@H]1C[C@H]1[C@@H](NC(=O)c1cccs1)c1ccc(Cl)cc1 | -9.44%
Cc1ccc(NC(=O)c2c([N+](=O)[O-])c(C(C)(C)C)nn2C)cc1 | -2.47%
Nc1c(Cl)cc(C2=NCCn3c2c2ccc([N+](=O)[O-])cc2[n+]3[O-])cc1Cl | -54.8%
Cc1ccccc1CC1CCN(CCCNC(=O)Nc2ccccc2)CC1 | -68.5%
Brc1ccccc1C1=Nn2c(nnc2-c2ccccc2)SC1 | 14.5%
COCOc1ccc(C=O)c(O)c1 | 7.21%
